Assay results from PubChem BioAssay AID488969 (Vanderbilt High Throughput Screening Facility, 2010).
In all, about 110,000 compounds were measured (“z-score”: median about -0.1, highest 2% from about 2 on). Some of the results follow.

Each compound was assayed against Metabotropic glutamate receptor 8 (Rattus norvegicus) (UniProt P70579) (assay: mGluR8 Gi/Go-coupled signaling modulation – cell-based, rat, thallium flux, HTS, primary screen (AID 488969)). Conditions: HEK293 rat mGluR8, GIRK (G protein-gated inwardly rectifying potassium channel) thallium flux, FluoZin2; at 10 µM; stronger effect = higher value; submaximal glutamate (EC20) added with thallium.
UniProt P70579, sequence (P70579 whole entry, looked up): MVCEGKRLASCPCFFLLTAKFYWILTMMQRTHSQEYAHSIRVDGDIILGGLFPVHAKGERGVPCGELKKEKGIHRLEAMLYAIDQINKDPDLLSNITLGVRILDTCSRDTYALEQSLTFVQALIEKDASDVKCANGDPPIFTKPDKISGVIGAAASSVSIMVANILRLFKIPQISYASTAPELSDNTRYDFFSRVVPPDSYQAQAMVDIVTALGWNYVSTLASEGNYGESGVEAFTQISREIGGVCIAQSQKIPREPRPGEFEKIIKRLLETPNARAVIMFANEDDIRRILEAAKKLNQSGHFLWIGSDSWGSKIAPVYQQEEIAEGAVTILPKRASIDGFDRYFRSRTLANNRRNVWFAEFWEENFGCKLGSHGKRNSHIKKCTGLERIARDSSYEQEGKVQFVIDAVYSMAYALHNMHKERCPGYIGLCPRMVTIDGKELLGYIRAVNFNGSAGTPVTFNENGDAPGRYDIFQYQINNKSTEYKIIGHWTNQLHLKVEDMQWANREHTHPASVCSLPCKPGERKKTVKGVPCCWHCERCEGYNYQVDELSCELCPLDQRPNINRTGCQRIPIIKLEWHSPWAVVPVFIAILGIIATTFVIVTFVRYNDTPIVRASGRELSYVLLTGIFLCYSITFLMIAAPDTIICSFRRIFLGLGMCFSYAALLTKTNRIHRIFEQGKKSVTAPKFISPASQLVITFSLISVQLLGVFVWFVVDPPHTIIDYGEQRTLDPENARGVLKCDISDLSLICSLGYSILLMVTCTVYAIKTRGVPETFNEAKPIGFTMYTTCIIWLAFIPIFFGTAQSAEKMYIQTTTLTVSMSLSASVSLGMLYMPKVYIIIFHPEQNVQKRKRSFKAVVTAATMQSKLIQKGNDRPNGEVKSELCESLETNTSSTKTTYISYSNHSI

Row | SMILES | z-score
1 | O=C(NCc1cccs1)C1CCN(c2ccc(S(=O)(=O)N3CCOCC3)cc2Cl)CC1 | -1.19
2 | CCN(CC)S(=O)(=O)c1ccc(N2CCOCC2)c(NC(=O)Cc2ccc(Cl)cc2)c1 | 0.141
3 | CS(=O)(=O)N(CCc1ccccc1)CC(=O)NCc1ccncc1 | -0.128
4 | CCN(CC)CCNC(=O)C12CC3CC(CC(C3)C1)C2 | 1.11
5 | Cc1ccc(CONC(=O)/N=C/N(C)C)cc1 | -0.115
6 | CCCCCc1nnc(NC(=O)C(=O)OCC)s1 | -0.104
7 | COc1cc(CCC(=O)Nc2cccc(C(F)(F)F)c2)cc(OC)c1OC | -0.00124
8 | CCCCc1nnc(NC(=O)C2CC(=O)N(c3ccc4c(c3)OCCO4)C2)s1 (configuration not stated) | 1.43
9 | CCN(CC)S(=O)(=O)c1cc(NC(=O)C(=O)c2c(-c3ccccc3)cc3ccccn23)ccc1C | -0.0782
10 | CCCC(=O)Nc1ccc(NC(=S)NC(=O)c2ccccc2[N+](=O)[O-])cc1 | -0.105
11 | CCNC(=S)N(CCc1ccccc1C)Cc1cc2cc(OC)c(OC)cc2[nH]c1=O | -0.106
12 | c1cncc(-c2nnc3sc(C4CCCCC4)nn23)c1 | -0.392
13 | CC1CCC(C(=O)NC(C(=O)NCCN2CCC(C)CC2)C(C)C)CC1 (configuration not stated) | -0.179
14 | CC(C)CSc1nc2ccccc2c(=O)[nH]1 | 0.41
15 | Cc1onc(-c2c(Cl)cccc2Cl)c1C(=O)N1C=CC(C(F)(F)F)=NCC1 | -0.114
16 | COc1ccc(C(=O)NC(=S)N2CC(C)OC(C)C2)cc1 (configuration not stated) | 0.0339

Row | SMILES | z-score
17 | COc1ccccc1NS(=O)(=O)c1ccc(C)c(NC(=O)c2ccc(S(=O)(=O)N3CCCCCC3)cc2)c1 | -0.106
18 | Cc1onc(-c2ccccc2Cl)c1C(=O)Nc1ccccc1C(=O)NC(C)C | -0.742
19 | COc1cccc(OC)c1OCC(C)CNCC1CCCO1 (configuration not stated) | -0.0252
20 | COc1cc(OC)c(-c2nn3c(C4CCCCC4)nnc3s2)cc1OC | -1.67
21 | CCNC(=S)NNC(=O)c1csc2c1CCCC2 | -0.209
22 | COC(=O)c1c(C)nn(-c2ccccc2)c1-n1cccc1 | -0.366
23 | O=C(Nc1ccccc1)N(O)c1ccc(Cl)cc1 | 0.164
24 | Cc1cc(/C=N/n2cnnc2)c(C)n1-c1ccc2c(c1)OCO2 | -0.329
25 | CCCC1=Nc2cc(C(=O)NCCCOC(C)C)ccc2Sc2ccccc21 | -0.218
26 | Cc1ccc(CN2CCN(c3ncccn3)CC2)o1 | 0.689
27 | Cc1ccc(-c2noc(CN3CCN(Cc4ccccc4)CC3)n2)cc1 | 0.161
28 | CC(C)OC(=O)CCCCCN1C(=O)CSC1=S | 0.0501
29 | CC(C)=NNc1nc(-c2ccccc2)cs1 | -0.203
30 | COc1ccc(NC(=O)/C(C#N)=C/c2ccc(Br)o2)cc1 | 0.17
31 | Cc1nc2c(cc1C#N)C(=O)c1ccccc1-2 | -0.0645
32 | CC(=O)Nc1cccc(OC(=O)N2CCOCC2)c1 | -0.0852
